Data as given in PMC4336329 (PLoS ONE, 2015).
Out of some 310,000 compounds screened, about 14,000 (4.5%) showed an effect of 50% or more. Effects have a minus sign here. The list shows a part of the results.

Biological target: human ether-à-go-go-related gene (hERG) potassium channel (human, UniProt Q12809)
Experiment: primary screen, population patch clamp on CHO cells stably expressing hERG
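Also: peak tail current of the secondary pulse compared with the same well before compound.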

Chain of human ether-à-go-go-related gene (hERG) potassium channel (Q12809 whole entry, looked up): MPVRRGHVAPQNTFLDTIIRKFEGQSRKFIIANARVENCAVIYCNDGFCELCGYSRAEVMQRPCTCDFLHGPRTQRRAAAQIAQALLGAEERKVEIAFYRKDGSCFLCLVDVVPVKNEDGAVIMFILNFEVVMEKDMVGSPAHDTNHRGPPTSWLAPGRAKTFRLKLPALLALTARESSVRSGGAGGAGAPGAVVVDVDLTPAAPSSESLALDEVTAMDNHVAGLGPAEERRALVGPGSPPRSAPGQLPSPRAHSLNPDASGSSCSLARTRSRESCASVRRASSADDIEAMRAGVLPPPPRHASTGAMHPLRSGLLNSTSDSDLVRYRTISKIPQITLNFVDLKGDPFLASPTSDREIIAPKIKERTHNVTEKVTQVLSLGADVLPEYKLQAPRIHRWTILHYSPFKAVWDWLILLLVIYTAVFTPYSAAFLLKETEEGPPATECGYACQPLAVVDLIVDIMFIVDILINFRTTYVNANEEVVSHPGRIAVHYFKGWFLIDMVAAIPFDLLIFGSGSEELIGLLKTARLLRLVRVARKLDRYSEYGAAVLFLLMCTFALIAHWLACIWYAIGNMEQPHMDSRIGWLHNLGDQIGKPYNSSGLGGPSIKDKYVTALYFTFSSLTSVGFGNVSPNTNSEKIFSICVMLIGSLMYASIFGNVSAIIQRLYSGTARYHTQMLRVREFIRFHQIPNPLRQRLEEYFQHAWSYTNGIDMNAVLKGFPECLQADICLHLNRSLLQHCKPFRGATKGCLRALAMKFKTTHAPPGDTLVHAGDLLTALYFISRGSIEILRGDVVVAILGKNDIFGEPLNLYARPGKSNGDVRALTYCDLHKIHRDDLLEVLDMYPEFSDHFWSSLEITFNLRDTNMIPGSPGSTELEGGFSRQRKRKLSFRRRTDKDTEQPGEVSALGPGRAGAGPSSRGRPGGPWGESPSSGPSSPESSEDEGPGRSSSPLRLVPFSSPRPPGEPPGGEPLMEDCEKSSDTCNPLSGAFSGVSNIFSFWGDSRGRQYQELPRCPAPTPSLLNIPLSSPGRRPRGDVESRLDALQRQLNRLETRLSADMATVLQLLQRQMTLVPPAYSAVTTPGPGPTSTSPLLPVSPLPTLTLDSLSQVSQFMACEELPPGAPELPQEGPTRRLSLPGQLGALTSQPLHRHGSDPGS

| SMILES | hERG current change (%, negative = inhibition) at 10uM |
| --- | --- |
| Cl.Cn1cccc1CNCC(O)c1ccccc1 (centres unmarked) | -21.8% |
| Cc1cccc(NC(=O)CSc2nnc(Cn3nnc(-c4ccccc4)n3)n2-c2ccccc2)c1 | 1.21% |
| Cc1cccc(-c2nsc(SCC(=O)Nc3ccc4c(c3)OCO4)n2)c1 | -16.2% |
| NC(=O)NC(CC(=O)NCCc1ccccn1)c1ccccc1Cl (centres unmarked) | 14.1% |
| CCC(=O)N1CCc2cc(S(=O)(=O)N3CCN(c4ccccc4)CC3)ccc21 | 12.2% |
| COc1cccc(CNCc2ccccc2Br)c1OC.O=C(O)C(=O)O | 4.22% |
| COc1ccc(N(CC(=O)Nc2cccnc2)S(=O)(=O)c2ccccc2)cc1Cl | -28.1% |
| COc1cc(CCCN[C@H](CN)Cc2ccccc2)cc(OC)c1OC | -4.22% |
| C#CCOCCOCCOCCNc1nc(N2CCN(C(=O)[C@H](CCCCN)n3cc([C@@H](N)C(C)CC)nn3)CC2)nc(N2CCN(C(=O)[C@H](CCCCN)n3cc([C@@H](N)CC(C)C)nn3)CC2)n1.Cl (some centres unmarked) | 4.49% |
| CCOc1ccc(NC(=O)C(Cc2ccccc2)NC(=O)C2CCCCC2)cc1 (centres unmarked) | 2.8% |
| CCOC(=O)c1cnn(Cc2ccccc2Cl)c1N | -11% |
| CC12COC3(C(=O)NCCc4ccccc4)CC1CCC32C (centres unmarked) | 15.1% |
| CCOCCCn1c(=S)[nH]c2cc(C(=O)NCc3ccc(F)cc3)ccc2c1=O | 9.11% |
| CCOc1ccccc1N(C(=O)CNS(=O)(=O)c1ccccc1)C(CC)C(=O)NCc1ccco1 (centres unmarked) | 2.71% |
| Cc1[nH]n(-c2ccccc2)c(=O)c1N=Nc1ccc(Cl)cc1 | 23.7% |
| COc1ccc(NC(=O)C2C3CCC4C(CCC32)C4(Cl)Cl)cc1 (centres unmarked) | 24.3% |
| Cc1ccc2c(CN3CCC(C)CC3)cc(=O)oc2c1C | 0.61% |
| O=C(Nc1ccc(Cl)cc1Cl)c1cccc(N2C(=O)C=CC2=O)c1 | 7.37% |
| Cc1onc(-c2ccccc2)c1C(=O)Nc1ccc(S(=O)(=O)NC2=NCCCCC2)cc1 | 9.51% |
| O=C(CN1CCN(Cc2ccccc2)CC1)NNC(=O)c1ccc(Cl)cc1 | -12.1% |
| O=C(/C=C/c1ccc([N+](=O)[O-])cc1)NCCSCc1ccco1 | -61.3% |
| CCC(=O)N1C(C(=O)O)CSC1c1ccc(OC)cc1 (centres unmarked) | 2.53% |

| SMILES | hERG current change (%, negative = inhibition) at 10uM |
| --- | --- |
| O=[N+]([O-])c1cc([N+](=O)[O-])c(Oc2c(Cl)cccc2Cl)cc1NN1CCCCC1 | 12.7% |
| CCOc1ccc(Cn2c(=O)oc3ccccc32)cc1 | 16.3% |
| O=C(NC(=O)c1ccccc1F)OCc1ccc(Cl)cc1Cl | -10.2% |
| CC(C)(C)C(=O)NC(=S)NNC(=O)c1ccc(-c2ccccc2)cc1 | 5.01% |
| O=C(Cc1ccc(Cl)c(Cl)c1)Nc1ccccc1N1CCCC1 | 0.464% |
| O=C(/C=C/c1cccc([N+](=O)[O-])c1)NCCN1C(=O)S/C(=C\c2ccc(F)cc2)C1=O | 15.3% |
| O=C(COc1ccc(Cl)cc1)Nc1ccc2oc(-c3ccncc3)nc2c1 | 3.86% |
| c1ccc(-c2ccc(C3=Nn4c(nnc4-c4cc(-c5ccccc5)n[nH]4)SC3)cc2)cc1 | -14.2% |
| Cc1ccccc1OCC(=O)NCC(=O)OCc1ccc(Br)cc1 | 17.8% |
| S=C(c1ccccc1)N1CCN(C(=S)c2ccccc2)CC1 | 27.5% |
| CCCNC(=O)c1onc(CSc2cccc(OC)c2)c1C(=O)NCCC | -7.12% |
| COc1ccc(CC(=O)NCCC(C)C)cc1S(=O)(=O)N1CCOCC1 | 4.39% |
| COc1ccc(NC(=O)CC(C)c2ccccc2)cc1S(=O)(=O)N1CCOCC1 (centres unmarked) | -4.76% |
| COc1ccc(S(=O)(=O)NCCSc2ccc(Cl)cc2)cc1OC | -22.4% |
| CCN(Cc1ccccc1)C(=O)c1cccnc1 | 2.64% |
| CCn1ncc(C(=O)Nc2ccc(S(=O)(=O)N3CCCC3)cc2)c1C | 2.64% |
| C=CCN(CC=C)S(=O)(=O)c1ccc(NC(=O)COc2ccccc2OC)cc1 | -19.6% |
| CC1(c2cccc(Br)c2)NC(=O)NC1=O (centres unmarked) | 18.1% |
| CC(=O)NC1C(=O)N(CCN2CCOCC2)c2ccc(F)cc21.Cl (centres unmarked) | 14.5% |
| CCCC1=NN2C(=N)/C(=C\c3cc(C)n(-c4cccc(C)c4)c3C)C(=O)N=C2S1 | 5.9% |
| CSc1ncccc1C(=O)NCc1ccc(C)cc1 | 6.56% |
| O=C(c1ccc(F)cc1)C1CCN(C(=O)NCc2ccccc2)CC1 | -6.67% |

| SMILES | hERG current change (%, negative = inhibition) at 10uM |
| --- | --- |
| O=C1NN(c2ccc(F)cc2)C(=O)/C1=C\c1cnn(-c2ccccc2)c1 | 2.42% |
| COc1cccc(C(=O)Nc2c3c(nn2-c2ccc([N+](=O)[O-])cc2)CS(=O)(=O)C3)c1 | -53.8% |
| Cc1ccc(OCC(=O)NNC(=S)NC(=O)c2cccs2)c(C)c1 | 27.9% |
| C/C(=N\Nc1nncc2ccccc12)c1ccc(Cl)c([N+](=O)[O-])c1 | 22.9% |
| N#CC1=C(N)Oc2cc(O)c(Cl)cc2C1c1ccccc1F (centres unmarked) | 2.63% |
| COc1cccc(NC(=O)C2CCCN(S(=O)(=O)c3cccc4nsnc34)C2)c1 (centres unmarked) | 0.524% |
| COC(=O)N/N=C/c1cn(CCOc2ccccc2)c2ccccc12 | 8.1% |
| Cc1cc(NC(=O)C2C3C(=O)N(c4cccnc4)C(C(=O)NC(C)(C)C)C34C=CC2(C)O4)no1 (centres unmarked) | 37.2% |
| Cc1cc(C)c2ccc(Cl)cc2n1 | 2.82% |
| Cc1cc(OC(=O)c2c(Cl)cccc2Cl)nc(C)n1 | -21.6% |
| NNC(=O)c1oc2nc(-c3ccc(Cl)cc3)cc(-c3ccccc3)c2c1N | 16.6% |
| Cn1c(C(C#N)C2=C(Cl)C(=O)N(c3ccccc3)C2=O)nc2ccccc21 (centres unmarked) | -2.15% |
| O=C(c1cccc(C(F)(F)F)c1)C1CCCN(Cc2cccn2-c2ccccn2)C1 (centres unmarked) | -83.5% |
| O=C(NCc1cccs1)c1ccc(Br)o1 | 2.25% |
| Cc1ccc(OCc2ccc(Br)cc2)c([N+](=O)[O-])n1 | 5.73% |
| CCOC(=O)CSC(CC)C(=O)Nc1nnc(C(C)C)s1 (centres unmarked) | -1.01% |
| N#Cc1cc2ccccc2nc1SCC(=O)Nc1ccc(S(=O)(=O)N2CCCC2)cc1 | 6.03% |
| COc1ccc(Cn2nnnc2C(C(C)C)N2CCc3ccccc32)cc1 (centres unmarked) | -16% |
| COc1cc(CNCCc2ccc(S(N)(=O)=O)cc2)ccc1OCC(=O)NC1CCCCC1.Cl | 10.6% |
| NC(=O)C1CCN(C(=O)COc2ccc(Nc3ccccc3)cc2)CC1 | -11.3% |
| O=C(N/N=C/c1c[nH]c2ccccc12)c1ccc(Cl)cc1 | -2.18% |
| O=C(Nc1nnc(C2CC2)s1)C1Cc2ccccc2CN1S(=O)(=O)c1ccccc1F (centres unmarked) | 0.0152% |

| SMILES | hERG current change (%, negative = inhibition) at 10uM |
| --- | --- |
| Br.O=C(O)c1ccc(Nc2nc(-c3ccccc3)cs2)cc1 | 5.87% |
| O=C(c1cccc(S(=O)(=O)NCc2ccc3c(c2)OCO3)c1)N1CCCC1 | -0.297% |
| CCOC(=O)C1CCN(C(=O)c2cc(CN3C(=O)c4ccccc4C3=O)ccc2OCC)CC1 | -28.9% |
| NC(=O)c1sc2nc3c(cc2c1N)CCCCCC3 | 2.42% |
| NC(=O)C1CN(C(=O)c2cccc(S(=O)(=O)N3CCc4ccccc43)c2)c2ccccc2O1 (centres unmarked) | -3.12% |
| CCC1C/C(=C\c2cc(OC)c(OC)cc2OC)C(=O)/C(=C/c2cc(OC)c(OC)cc2OC)C1 (centres unmarked) | 15.1% |
| Cc1ccc(-n2[nH]c(C)c(/C=C3/C=Nc4ccccc43)c2=O)cc1C | -7.42% |
| CC(C)(OC(=O)c1ccc(F)cc1)c1cc2ccccc2c(=O)o1 | 3.1% |
| COC(=O)CN1C(=O)N/C(=C/c2ccc(C)o2)C1=O | -0.35% |
| Cc1ccc(Cn2ncc3c(NCCCN4CCOCC4)ncnc32)cc1 | -2.6% |
| Cc1cc(C)c[n+](C(C)C(=O)c2ccc(-c3ccccc3)cc2)c1.[Br-] (centres unmarked) | 3.92% |
| O=C(O)C1CSC2(c3ccc(Br)cc3)CCC(=O)N12 (centres unmarked) | 21.7% |
| COc1ccccc1N(C)S(=O)(=O)c1ccc(C(=O)NC2CCCCC2)cc1 | -8.31% |
| COC(CNC(=O)c1c[nH]c2ccc(S(=O)(=O)N3CCC4(CC3)OCCO4)cc2c1=O)OC | 3.64% |
| Cc1nc(SCC#N)c2c(C)c(C)sc2n1 | 12.4% |
| O=C1CCc2cc(NS(=O)(=O)c3ccccc3)cc3c2N1CC3 | -9.65% |
| Cc1ccc(SCCN2CCN(C)CC2)cc1.Cl | 6.39% |
| O=C(/C=C/c1ccc(Br)cc1)NCCCn1ccnc1 | -57% |
| CN(c1ccc(O)cc1)c1nc(O)c(C2=c3ccccc3=NC2=O)s1 | -11.2% |
| CCc1cccc2c(SCC(=O)NCC3CCCO3)nc(-c3ccc(F)cc3)nc12 (centres unmarked) | 9.66% |
